# In the supplement of paper PMC8728848:
# This is one part of the list.
# B1: Tulipa lectin C-1 (Tulipa hybrid) (protein)
# chain: MGMALVVALAVALASTVAGQQNVLLSGNTLANEESLSYGSVKFIMQNDCNLVLYGGGFQSNTASNGKKCTLTLNNNGHLIINDGLTGRVVWRNSNAQNPVGRYAAVLRPAPGTADVAIYGPAIWSTNDEFSYQESGVVPHKLGRETPNLPRMQNLLFSGQTLYGTDGMLSSNDGSTTFELSKCQLSLSLGNEVKWKVAPTVENGKENYCHVRLDHRGHLSLLNDDNVVLFRSIPTNGVEPPIGDYVLIVEKGAGYIYGPPIWNTYDNRRYKVASA
# Columns and labels:
# Experiment in all cases: glycan array binding signal (z-score within array); higher = stronger binding
# Settings in all cases: glycan notation: IUPAC condensed, linker removed
# [1] = biological target: Fuc(a1-3)[Gal(b1-4)]GlcNAc(b1-4)Gal(b1-4)[Fuc(a1-3)]GlcNAc(b1-4)Gal(b1-4)[Fuc(a1-3)]GlcNAc
# How it was run: (§1)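 Negative Z-scores can be read as non-binding. The Z-score is calculated within each array and then averaged across arrays of one protein sequence at different concentrations or buffers and across linkers. Arrays, 3228 in all, were curated from the Consortium for Functional Glycomics database and kept only where the protein sequence was available.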
# [2] = biological target: Fuc(a1-3)[Gal3S(b1-4)]GlcNAc
# How it was run: as §1
# [3] = biological target: Fuc(a1-3)[GalNAc(b1-4)]Gal(b1-4)GlcNAc
# How it was run: as §1
# Fuc(a1-4)GlcNAc = biological target: Fuc(a1-4)GlcNAc
# How it was run: as §1
# Fuc(b1-3)GlcNAc = biological target: Fuc(b1-3)GlcNAc
# How it was run: as §1
# Gal(a1-2)Gal = biological target: Gal(a1-2)Gal
# How it was run: as §1
# Gal(a1-3)Gal = biological target: Gal(a1-3)Gal
# How it was run: as §1
# Gal(a1-3)Gal(b1-3)Glc = biological target: Gal(a1-3)Gal(b1-3)Glc
# How it was run: as §1
# Gal(a1-3)Gal(b1-3)GlcNAc = biological target: Gal(a1-3)Gal(b1-3)GlcNAc
# How it was run: as §1
# Gal(a1-3)Gal(b1-4)GlcNAc = biological target: Gal(a1-3)Gal(b1-4)GlcNAc
# How it was run: as §1
# [4] = biological target: Gal(a1-3)Gal(b1-4)[Fuc(a1-3)]GalNAc
# How it was run: as §1
# Gal(a1-3)GlcNAc = biological target: Gal(a1-3)GlcNAc
# How it was run: as §1
# [5] = biological target: Gal(a1-3)[Gal(a1-4)]Gal(b1-4)GlcNAc
# How it was run: as §1
# Gal(a1-4)Gal(b1-4)Gal = biological target: Gal(a1-4)Gal(b1-4)Gal
# How it was run: as §1
# Gal(a1-4)Gal(b1-4)GalNAc = biological target: Gal(a1-4)Gal(b1-4)GalNAc
# How it was run: as §1
# Gal(a1-4)GlcNAc = biological target: Gal(a1-4)GlcNAc
# How it was run: as §1
# Gal(a1-6)Glc = biological target: Gal(a1-6)Glc
# How it was run: as §1
# Gal(b1-2)Gal = biological target: Gal(b1-2)Gal
# How it was run: as §1
# Gal(b1-3)Gal = biological target: Gal(b1-3)Gal
# How it was run: as §1
# Gal(b1-3)GalNAc = biological target: Gal(b1-3)GalNAc
# How it was run: as §1
# [6] = biological target: Gal(b1-3)GalNAc(b1-3)Gal(a1-4)Gal(b1-4)Glc
# How it was run: as §1
# [7] = biological target: Gal(b1-3)GalNAc(b1-3)Gal(b1-4)Glc
# How it was run: as §1
# [8] = biological target: Gal(b1-3)GalNAc(b1-3)Gal(b1-4)GlcNAc
# How it was run: as §1
# [9] = biological target: Gal(b1-3)GalNAc(b1-4)Gal(b1-4)Glc
# How it was run: as §1
# [10] = biological target: Gal(b1-3)GalNAc(b1-4)[Neu5Ac(a2-3)]Gal(b1-4)Glc
# How it was run: as §1
# [11] = biological target: Gal(b1-3)[Fuc(a1-4)]GlcNAc
# How it was run: as §1
# [12] = biological target: Gal(b1-3)[Fuc(a1-4)]GlcNAc(b1-3)Gal(b1-4)GlcNAc
# How it was run: as §1
# [13] = biological target: Gal(b1-3)[Fuc(a1-4)]GlcNAc(b1-3)Gal(b1-4)[Fuc(a1-3)]GlcNAc
# How it was run: as §1
# [14] = biological target: Gal(b1-3)[GlcNAc(b1-6)]GalNAc
# How it was run: as §1
# [15] = biological target: Gal(b1-3)[GlcNAc(b1-6)]GlcNAc
# How it was run: as §1
# [16] = biological target: Gal(b1-3)[Neu5Ac(a2-6)]GalNAc
# How it was run: as §1
# [17] = biological target: Gal(b1-3)[Neu5Ac(a2-6)]GlcNAc
# How it was run: as §1
# [18] = biological target: Gal(b1-3)[Neu5Ac(a2-6)]GlcNAc(a1-4)Gal(b1-4)Glc
# How it was run: as §1
# [19] = biological target: Gal(b1-3)[Neu5Ac(b2-6)]GlcNAc
# How it was run: as §1
# [20] = biological target: Gal(b1-4)GalNAc(a1-3)[Fuc(a1-2)]Gal(b1-4)GlcNAc
# How it was run: as §1
# [21] = biological target: Gal(b1-4)GalNAc(b1-3)[Fuc(a1-2)]Gal(b1-4)GlcNAc
# How it was run: as §1
# Gal(b1-4)Glc = biological target: Gal(b1-4)Glc
# How it was run: as §1
# Gal(b1-4)Glc6S = biological target: Gal(b1-4)Glc6S
# How it was run: as §1
# Gal(b1-4)GlcNAc = biological target: Gal(b1-4)GlcNAc
# How it was run: as §1
# [22] = biological target: Gal(b1-4)GlcNAc(b1-2)Man(a1-3)[Gal(b1-4)GlcNAc(b1-2)Man(a1-6)]Man(b1-4)GlcNAc(b1-4)GlcNAc
# How it was run: as §1
# [23] = biological target: Gal(b1-4)GlcNAc(b1-3)Gal(b1-4)Glc
# How it was run: as §1
# [24] = biological target: Gal(b1-4)GlcNAc(b1-3)Gal(b1-4)GlcNAc
# How it was run: as §1
# [25] = biological target: Gal(b1-4)GlcNAc(b1-3)Gal(b1-4)GlcNAc(b1-3)Gal(b1-4)GlcNAc
# How it was run: as §1
# [26] = biological target: Gal(b1-4)GlcNAc(b1-3)Gal(b1-4)[Fuc(a1-3)]GlcNAc(b1-3)Gal(b1-4)[Fuc(a1-3)]GlcNAc
# How it was run: as §1
# [27] = biological target: Gal(b1-4)GlcNAc(b1-3)GalNAc
# How it was run: as §1
binder,measurement,setting,value
B1,glycan array binding signal (z-score),[1],-0.188
same,glycan array binding signal (z-score),[2],-0.151
same,glycan array binding signal (z-score),[3],-0.217
same,glycan array binding signal (z-score),Fuc(a1-4)GlcNAc,-0.228
same,glycan array binding signal (z-score),Fuc(b1-3)GlcNAc,-0.171
same,glycan array binding signal (z-score),Gal(a1-2)Gal,-0.202
same,glycan array binding signal (z-score),Gal(a1-3)Gal,-0.198
same,glycan array binding signal (z-score),Gal(a1-3)Gal(b1-3)Glc,-0.154
same,glycan array binding signal (z-score),Gal(a1-3)Gal(b1-3)GlcNAc,-0.193
same,glycan array binding signal (z-score),Gal(a1-3)Gal(b1-4)GlcNAc,-0.223
same,glycan array binding signal (z-score),[4],-0.18
same,glycan array binding signal (z-score),Gal(a1-3)GlcNAc,-0.21
same,glycan array binding signal (z-score),[5],-0.221
same,glycan array binding signal (z-score),Gal(a1-4)Gal(b1-4)Gal,-0.099
same,glycan array binding signal (z-score),Gal(a1-4)Gal(b1-4)GalNAc,-0.213
same,glycan array binding signal (z-score),Gal(a1-4)GlcNAc,-0.189
same,glycan array binding signal (z-score),Gal(a1-6)Glc,-0.147
same,glycan array binding signal (z-score),Gal(b1-2)Gal,-0.164
same,glycan array binding signal (z-score),Gal(b1-3)Gal,-0.202
same,glycan array binding signal (z-score),Gal(b1-3)GalNAc,-0.216
same,glycan array binding signal (z-score),[6],-0.226
same,glycan array binding signal (z-score),[7],-0.226
same,glycan array binding signal (z-score),[8],-0.219
same,glycan array binding signal (z-score),[9],-0.163
same,glycan array binding signal (z-score),[10],-0.159
same,glycan array binding signal (z-score),[11],-0.198
same,glycan array binding signal (z-score),[12],-0.222
same,glycan array binding signal (z-score),[13],-0.225
same,glycan array binding signal (z-score),[14],-0.229
same,glycan array binding signal (z-score),[15],-0.226
same,glycan array binding signal (z-score),[16],-0.224
same,glycan array binding signal (z-score),[17],-0.222
same,glycan array binding signal (z-score),[18],-0.23
same,glycan array binding signal (z-score),[19],-0.219
same,glycan array binding signal (z-score),[20],-0.129
same,glycan array binding signal (z-score),[21],-0.211
same,glycan array binding signal (z-score),Gal(b1-4)Glc,-0.211
same,glycan array binding signal (z-score),Gal(b1-4)Glc6S,-0.208
same,glycan array binding signal (z-score),Gal(b1-4)GlcNAc,-0.225
same,glycan array binding signal (z-score),[22],5.37
same,glycan array binding signal (z-score),[23],-0.193
same,glycan array binding signal (z-score),[24],-0.137
same,glycan array binding signal (z-score),[25],-0.242
same,glycan array binding signal (z-score),[26],-0.223
same,glycan array binding signal (z-score),[27],-0.23
